The record followed here is patent publication US20090196918A1, “Liposomal formulations of hydrophobic lactone drugs in the presence of metal ions” (University of Kentucky Research Foundation, priority 2008, published 2009).

SMILES strings stand for the structures.

For the assay, the system named is Non-small cell lung cancer (H460) xenografts. As to the kind of experiment: Efficacy of DB-67 in non-small cell lung cancer (H460) xenografts in mice. Conditions: nu/nu mice, protracted intravenous dosing of nonliposomal DB-67 (FIGS. 6 and 7).

Regarding `CC[C@@]1(O)C(=O)OCc2c1cc1n(c2=O)Cc2c-1nc1ccc(O)cc1c2[Si](C)(C)C(C)(C)C` [DB-67, 7-t-butyldimethylsilyl-10-hydroxycamptothecin], the “treatment of non-small cell lung cancer (H460): tumor volume and survival” value was “effective”.
